Some of the results follow.
The sequences below were run on PF3D7_0420300 AP2 domain 1 (GST-tagged) (assay: gcPBM binding intensity (ln(normalized median fluorescence intensity)); higher = stronger DNA binding).
Summary of the method: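 After 1 h on an Agilent 4 × 180k array of primer-extended double-stranded 36-bp intergenic genomic probes and negative controls, bound GST-tagged P. falciparum DNA-binding domains were detected with Alexa488 anti-GST antibody and scanned at 488 nm. The domains had been expressed in E. coli, and binding took place in 1× PBS with 1% milk, 0.2 mg/ml BSA, 0.5% salmon testes DNA and 0.03% Triton X-100. Binding intensity is the highest Masliner-normalised natural-log median intensity across replicate spots of either probe orientation.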

Sequence | gcPBM binding intensity (ln)
TTTTATTCCTTCTTTGCACACGTTTAAAAATATATA [CACACA_site2899] | 9.52
AATATAATATAAGGATCACACACAAACACCCATATA [CACACA_site8084] | 9.9
ATTAAAAAAATTAAAAGTACACATATTTCAATGATA [XGTACX_site5606] | 9.08
TAAGTTATATGTATATGTACTTATATATATATATAT [XGTACX_site5402] | 9.02
TAAAAAAAAAAAAAAACACACATATAAATATATATA [CACACA_site1243] | 9.34
AAAATTAAAAAGAACACACAAATATATCTATAATAA [CACACA_site7660] | 9.58
TATTTTTTTTCTTATACACACCATGCATCAAACTAA [CACACA_site5208] | 9.4
TTTATATATATATATATATATAATAAATGATACACA [TGCATGCA_negctrl_site392] | 9.04
TTTGCACCGTTTAAGTGTACAGAATTATGACATATA [XGTACX_site6735] | 9
TCAAAAATATTCTGGAGTACCTTTTTAAAGGTATAG [XGTACX_site6893] | 8.79
TAAATATATATATACACACACATACACAAAAAAAAA [CACACA_site3580] | 10.1
TGTGGTTACATGTGCACACACTTATTTCGTTCTTAT [CACACA_site4907] | 9.82
ATTGCATATAATGGCACACATAAATCCATAATATAT [CACACA_site297] | 9.29
GCAGGATTGGTTCAAACACACATATTATATGACTAT [CACACA_site660] | 9.48
TTTTTTTTTTTTTTTGCACACACATAATAGGTACAA [CACACA_site3578] | 9.54
ATCTTATATGATCACACACACACGCACAAAACAGAA [CACACA_site4913] | 10.1
GCACATAAATATATGACACACACACCGATTATATAT [CACACA_site9003] | 9.99
TTAATAAATAAAAATGCACACAGTTAACATGTTGAA [CACACA_site1200] | 9.42
ATAATAATTTAATACATACACACGTATATCTTTTTT [CACACA_site2041] | 9.4

Sequence | gcPBM binding intensity (ln)
AAAAAAAAAAAAAAAACACACAAACATCAAATTATT [CACACA_site5083] | 9.58
ATACAAAAAGTAAAAAGTACTTAACTAAATATATAA [XGTACX_site2335] | 9.28
TTTTCAATATATTAATGTACGAATACGCAAATAAGA [XGTACX_site1613] | 9.12
GTTTTAACAAAATTAGTGCATTTATCAATTATATAA | 9.02
TTTTTTTTTTCAATGGCACACATTTTAGATTTATGC [CACACA_site1074] | 9.15
ATAATACTACCTACATGTACTTATATATAAATGAAT [XGTACX_site3417] | 9.35
ACATCAAGCGGACACACACACACACCGACAGACACA [CACACA_site4361] | 10.2
AAAGAATCAAGAATAGTGCAAATATGTATAACCTTT | 9.6
ATATATATATATGAATCACACACAAAAAATATAGAG [CACACA_site9298] | 9.95
ATAAAATAATGAAAAACACACATTTTTATTTGTATA [CACACA_site3369] | 9.36
AATAACATGTTATATACACACATTATGAAGTCTTCA [CACACA_site746] | 9.41
AAGATTATAAATATATGTACATAAATATATTATATA [XGTACX_site8056] | 9.06
ATTGTTTTTTTTTCTTTGTGGAATGAATGAATATAT [XGTACX_negctrl_site603] | 9.42
TATATATATAAACACACACACATATATATATATATA [CACACA_site4584] | 9.72
TTTAAAATACAGAAGGTGCATTTAACATATTTGTAT | 9.25
AAAAAAAAAAAATGCACACATATATTTCCATATACA [CACACA_site1471] | 9.39
ATATATATATATATATGTACTAATTAATATTTCGAG [XGTACX_site580] | 9.14
GTATATCATATTTCATGTACACAAAAAAATAAAAAT [XGTACX_site704] | 9.29
ACAAAATTTACAAAATGTACAAAATTTACAAAGTAT [XGTACX_site6463] | 9.23

Sequence | gcPBM binding intensity (ln)
TATATATATTATATATGTACATATTATATATATATA [XGTACX_site7300] | 9.07
ATATATTTGATAAGAGTGCACAAATACATACATACA [GTGCAC_site9704] | 9.54
TATACATACCATAATGCATGTAAGAACAAATAACTG [TGCATGCA_site264] | 9.23
AAAAAAAAAAAAAAGGTGCATACTTTGAATTAATAT [GTGCAC_site9401] | 9.2
ATGACTCTCAAGTTTGCACACATTTATATTTTTTAA [CACACA_site2605] | 9.54
AAAGTATTCTTTACACGTACATATATATAAATATAA [XGTACX_site7557] | 8.99
AATATAAATAATATATGTACATATATATATATATAT [XGTACX_site1021] | 9.22
AGAATTGTTGTTAAAGAATTCTTTTTTATCCTTCCC [CACACA_negctrl_site1820] | 8.89
TTTGTATATATTAATGTACACACATGCGTATGTTCG [CACACA_site9193] | 9.55
AATATAGATATAAAAAGTACATTATATATATATATA [XGTACX_site6899] | 9.33
GTTAAATAATATATATGTACATACATAAGTGTTACT [XGTACX_site4778] | 9.28
ATTTCCTTTTGTTTCAGTACATAATTTTTTTTTTTT [XGTACX_site4842] | 9.54
TTGCCCATTTAATTAACACACAAATATTTATATTCT [CACACA_site738] | 9.53
GATATTCATAGAAACACACATACAAATTATGTATAT [CACACA_site144] | 9.35
TAATTGTACGCCAATACACACAGAATTAAAATGTAG [CACACA_site4234] | 9.58
TTTTTAAAGTTTTATACACACACCAAAATTATTCTA [CACACA_site600] | 9.47
TATGTGCACCCATGTACATGCGGACATATGTTATAT [TGCATGCA_site383] | 9.05
TATGTATATATATATATATATATATATATATATATA [TGCATGCA_negctrl_site491] | 8.78
ATGGCCACTGTGAAATGTACAAAAAAAAAATACAAT [XGTACX_site2874] | 9.4

Reference: the supplement of paper PMC11417369
